# “And” between values parts separate entries of the source, which are not always exact repeats. Identical values can stand only once. The shares of active, inactive and inconclusive entries below differ from those in the screen. For some of these results: A potency beside an inconclusive call is a rough fit, not a confirmed value. The source made the active and inactive calls. Unless noted, the call rests on the fitted dose curve; in most records, active means well fitted curve in the direction sought with a large enough effect in the repeat runs; inconclusive means weak or mixed curves; inactive means no such curve, though single readings can be large; an effect the other way counts as inactive or inconclusive.
# Experiments:
# [1] = qHTS assay to identify small molecule antagonists of the TGF-beta/Smad signaling pathway (AID 1346924; active means well fitted inhibition curve with a large enough effect in the signal ratio in the repeat runs, not every such curve was filed as active; inconclusive means weak or mixed curves; the % refers to the signal ratio; further: potency means the concentration at half of the fitted maximal effect); conditions: SBE-bla HEK293T, TGF-beta/Smad reporter, beta-lactamase ratio; activity, negative = inhibition: at 76.8 µM (top of the series) unless noted
# Procedure, shortened: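 Read-out was FRET-substrate fluorescence (405 nm excitation; 460 and 530 nm emission) after 2 h at room temperature. Before that, cells carrying a Smad-binding-element beta-lactamase reporter in HEK 293T had been stimulated 5 h at 37 C with TGF-beta1 (0.25 ng/mL addition solution) in the presence of test compound.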
# [2] = molecular target: Nuclear receptor subfamily 1 group I member 2 (Homo sapiens) (UniProt O75469); experiment: Human pregnane X receptor (PXR) small molecule agonists, qHTS assay (AID 1346982); further: nearly all actives have a fitted effect of over 35% in size; further: potency means the concentration at half of the fitted maximal effect; on activation: on the % scale 0 is the no-effect control and ±100 the full control effect
# Procedure, shortened: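 Agonist mode: luminescence from ONE-Glo after 24 h compound exposure at 37C in HepG2 cells carrying hPXR-responsive CYP3A4 luciferase, plated in charcoal-stripped serum medium 5 h beforehand.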
# [3] = molecular target: Cytochrome P450 2C19 (Homo sapiens) (UniProt P33261); experiment: Cytochrome P450 Family 2 Subfamily C Member 19 (CYP2C19) small molecule antagonists: luciferase reporter qHTS assay (AID 1671197); further: nearly all actives have a fitted effect of over 65% in size; further: potency means the concentration at half of the fitted maximal effect
# Procedure, shortened: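 Enzyme-substrate mix with proluciferin substrate (P450-Glo CYP2C19 system) preincubated with compounds 10 min at room temperature; NADPH regeneration solution added, 37C for 1 h; detection reagent stops reaction, luminescence read after 20 min. Ketoconazole positive control.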
# [4] = molecular target: Cytochrome P450 2C9 (Homo sapiens) (UniProt P11712); experiment: Cytochrome P450 Family 2 Subfamily C Member 9 (CYP2C9) small molecule antagonists: luciferase reporter qHTS assay (AID 1671198); further: nearly all actives have a fitted effect of over 50% in size; further: potency means the concentration at half of the fitted maximal effect
# Procedure, shortened: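 CYP2C9 activity was measured with a P450-Glo proluciferin substrate. Enzyme–substrate mix was held with compound for 10 min at room temperature, then NADPH regeneration solution was added for 1 h at 37C. Luciferin product was read as luminescence.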
# [5] = molecular target: Cytochrome P450 1A2 (Homo sapiens) (UniProt P05177); experiment: Cytochrome P450 Family 1 Subfamily A Member 2 (CYP1A2) small molecule antagonists: luciferase reporter qHTS assay (AID 1671199); further: nearly all actives have a fitted effect of over 50% in size; further: potency means the concentration at half of the fitted maximal effect
# Procedure, shortened: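 Luminescence from luciferin formed by CYP1A2 from a proluciferin substrate, read 20 min after detection reagent. Compound was pre-incubated 10 min with enzyme-substrate, and reaction started with NADPH regeneration solution for 1 h at room temperature; furafylline control.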
# [6] = molecular target: Cytochrome P450 2D6 (Homo sapiens) (UniProt P10635); experiment: Cytochrome P450 Family 2 Subfamily D Member 6 (CYP2D6) small molecule antagonists: luciferase reporter qHTS assay (AID 1671196); further: nearly all actives have a fitted effect of over 50% in size; further: potency means the concentration at half of the fitted maximal effect
# Procedure, shortened: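 CYP2D6 activity was followed as luminescence from its luciferin product after a 1 h NADPH-driven reaction at room temperature. Enzyme-substrate mix and compound were pre-incubated for 10 min, and the signal was read 20 min after adding detection reagent.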
# [7] = molecular target: Cytochrome P450 3A4 (Homo sapiens) (UniProt P08684); experiment: Cytochrome P450 Family 3 Subfamily A Member 4 (CYP3A4) small molecule antagonists: luciferase reporter qHTS assay (AID 1671201); further: nearly all actives have a fitted effect of over 50% in size; further: potency means the concentration at half of the fitted maximal effect
# Procedure, shortened: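 Setup: enzyme-substrate mix, compound pin transfer, 10 min RT. Reaction: NADPH regeneration solution, 1 h RT. Readout: detection reagent stops turnover, luminescence measured after 20 min, expressed in relative luminescence units.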
# [8] = molecular target: Nuclear receptor subfamily 1 group I member 2 (Homo sapiens) (UniProt O75469); experiment: Human pregnane X receptor (PXR) activation by small molecules, qHTS assay (AID 1346985); further: on the % scale 0 is the no-effect control and ±100 the full control effect; nearly all actives have a fitted effect of over 40% in size
# Procedure, shortened: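 DPX-2 cells (HepG2 co-transfected with a PXR response element and a CYP3A4-promoter luciferase construct) were seeded at 2,000 per well, rested 5 hr at 37C, then exposed to DMSO-dissolved compounds for 24 hr. Activation was read as luciferase luminescence.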
# [9] = molecular target: Voltage-gated inwardly rectifying potassium channel KCNH2 (Homo sapiens) (UniProt Q12809); experiment: Human Ether-a-go-go-Related Gene (hERG) channel small molecule antagonists: fluorescence cell-based qHTS assay (AID 1671200); further: nearly all actives have a fitted effect of over 50% in size; further: potency means the concentration at half of the fitted maximal effect
# Procedure, shortened: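 Measured: Tl+ flux via fluorescence (480/540 nm) in hERG-expressing U2OS cells after 1 h dye loading at room temperature.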
# Tags describe the fitted curve by direction and shape or compound fluorescence and quenching.
# Sequence of UniProt P05177 (P05177 whole entry, looked up): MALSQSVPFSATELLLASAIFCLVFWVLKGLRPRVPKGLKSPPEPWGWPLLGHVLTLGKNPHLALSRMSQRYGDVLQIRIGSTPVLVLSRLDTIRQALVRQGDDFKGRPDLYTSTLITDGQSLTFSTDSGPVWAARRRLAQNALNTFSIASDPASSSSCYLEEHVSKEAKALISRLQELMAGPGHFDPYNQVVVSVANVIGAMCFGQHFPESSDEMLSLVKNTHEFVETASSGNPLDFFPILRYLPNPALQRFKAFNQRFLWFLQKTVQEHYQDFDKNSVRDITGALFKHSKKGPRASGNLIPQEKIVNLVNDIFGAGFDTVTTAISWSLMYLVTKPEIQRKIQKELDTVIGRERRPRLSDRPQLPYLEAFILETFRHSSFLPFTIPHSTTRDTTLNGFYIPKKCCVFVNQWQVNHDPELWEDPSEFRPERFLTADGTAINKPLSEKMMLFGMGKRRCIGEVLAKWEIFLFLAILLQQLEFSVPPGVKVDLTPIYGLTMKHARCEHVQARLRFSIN
# Sequence of UniProt P08684 (P08684 whole entry, looked up): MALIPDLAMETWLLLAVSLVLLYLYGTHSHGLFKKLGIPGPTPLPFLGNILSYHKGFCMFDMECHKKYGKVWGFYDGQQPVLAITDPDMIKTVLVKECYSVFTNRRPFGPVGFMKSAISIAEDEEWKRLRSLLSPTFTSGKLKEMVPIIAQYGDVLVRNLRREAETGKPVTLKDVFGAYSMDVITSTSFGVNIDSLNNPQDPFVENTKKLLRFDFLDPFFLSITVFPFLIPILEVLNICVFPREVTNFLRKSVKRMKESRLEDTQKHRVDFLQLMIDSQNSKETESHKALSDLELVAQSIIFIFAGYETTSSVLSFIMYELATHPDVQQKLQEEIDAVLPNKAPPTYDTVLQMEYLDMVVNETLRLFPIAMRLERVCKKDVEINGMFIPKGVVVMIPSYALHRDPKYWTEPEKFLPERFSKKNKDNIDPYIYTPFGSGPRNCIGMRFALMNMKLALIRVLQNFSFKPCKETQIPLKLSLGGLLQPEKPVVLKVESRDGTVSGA
# Sequence of UniProt O75469 (O75469 whole entry, looked up): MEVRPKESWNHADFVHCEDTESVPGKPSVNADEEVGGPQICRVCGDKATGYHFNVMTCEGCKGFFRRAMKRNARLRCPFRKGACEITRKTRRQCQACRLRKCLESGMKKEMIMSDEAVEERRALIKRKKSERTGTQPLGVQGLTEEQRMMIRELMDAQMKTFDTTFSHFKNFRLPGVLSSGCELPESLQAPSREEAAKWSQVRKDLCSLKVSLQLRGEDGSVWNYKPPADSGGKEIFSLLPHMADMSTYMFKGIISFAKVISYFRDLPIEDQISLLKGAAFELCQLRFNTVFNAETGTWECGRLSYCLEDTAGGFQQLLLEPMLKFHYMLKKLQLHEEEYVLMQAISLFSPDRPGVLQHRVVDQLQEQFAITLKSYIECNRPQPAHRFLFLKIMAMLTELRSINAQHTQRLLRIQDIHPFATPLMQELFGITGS
# Sequence of UniProt P10635 (P10635 whole entry, looked up): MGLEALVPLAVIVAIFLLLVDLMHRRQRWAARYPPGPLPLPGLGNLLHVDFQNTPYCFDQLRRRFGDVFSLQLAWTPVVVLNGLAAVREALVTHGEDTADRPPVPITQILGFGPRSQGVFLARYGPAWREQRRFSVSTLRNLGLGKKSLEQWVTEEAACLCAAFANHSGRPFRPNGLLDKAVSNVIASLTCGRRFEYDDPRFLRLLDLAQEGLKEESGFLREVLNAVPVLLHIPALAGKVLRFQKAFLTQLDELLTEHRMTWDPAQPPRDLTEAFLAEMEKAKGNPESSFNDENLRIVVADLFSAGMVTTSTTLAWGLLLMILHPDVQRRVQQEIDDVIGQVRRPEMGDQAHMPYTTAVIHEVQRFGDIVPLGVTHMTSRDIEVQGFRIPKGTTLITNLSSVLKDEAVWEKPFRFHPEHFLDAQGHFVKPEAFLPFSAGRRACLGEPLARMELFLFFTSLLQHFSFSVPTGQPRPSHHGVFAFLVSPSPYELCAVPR
# Sequence of UniProt P33261 (P33261 whole entry, looked up): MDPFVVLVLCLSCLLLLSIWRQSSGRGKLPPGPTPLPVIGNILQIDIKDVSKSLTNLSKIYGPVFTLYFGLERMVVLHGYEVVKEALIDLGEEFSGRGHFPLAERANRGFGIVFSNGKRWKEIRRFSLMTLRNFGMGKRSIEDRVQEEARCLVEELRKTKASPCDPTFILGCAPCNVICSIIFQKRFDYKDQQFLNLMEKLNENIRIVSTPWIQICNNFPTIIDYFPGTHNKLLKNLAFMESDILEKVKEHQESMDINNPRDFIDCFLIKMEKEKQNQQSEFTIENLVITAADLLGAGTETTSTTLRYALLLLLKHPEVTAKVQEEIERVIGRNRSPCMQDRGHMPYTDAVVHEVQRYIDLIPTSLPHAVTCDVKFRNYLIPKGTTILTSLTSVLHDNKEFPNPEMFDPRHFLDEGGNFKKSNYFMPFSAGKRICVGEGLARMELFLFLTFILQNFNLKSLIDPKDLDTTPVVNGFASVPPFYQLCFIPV
# Sequence of UniProt P11712 (P11712 whole entry, looked up): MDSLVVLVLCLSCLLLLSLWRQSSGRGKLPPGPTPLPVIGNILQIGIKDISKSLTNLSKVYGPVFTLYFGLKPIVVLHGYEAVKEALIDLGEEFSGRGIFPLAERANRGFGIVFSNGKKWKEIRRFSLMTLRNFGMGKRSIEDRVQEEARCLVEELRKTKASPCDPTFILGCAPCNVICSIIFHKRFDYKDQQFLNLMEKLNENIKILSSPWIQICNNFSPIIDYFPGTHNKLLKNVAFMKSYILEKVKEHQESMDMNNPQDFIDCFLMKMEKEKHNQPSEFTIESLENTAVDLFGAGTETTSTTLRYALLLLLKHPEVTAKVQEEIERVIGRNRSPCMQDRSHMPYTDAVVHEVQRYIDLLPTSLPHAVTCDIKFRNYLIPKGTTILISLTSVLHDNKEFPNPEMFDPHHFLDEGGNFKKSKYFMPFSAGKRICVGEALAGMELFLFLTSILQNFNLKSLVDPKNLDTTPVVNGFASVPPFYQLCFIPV
# Sequence of UniProt Q12809 (Q12809 whole entry, looked up): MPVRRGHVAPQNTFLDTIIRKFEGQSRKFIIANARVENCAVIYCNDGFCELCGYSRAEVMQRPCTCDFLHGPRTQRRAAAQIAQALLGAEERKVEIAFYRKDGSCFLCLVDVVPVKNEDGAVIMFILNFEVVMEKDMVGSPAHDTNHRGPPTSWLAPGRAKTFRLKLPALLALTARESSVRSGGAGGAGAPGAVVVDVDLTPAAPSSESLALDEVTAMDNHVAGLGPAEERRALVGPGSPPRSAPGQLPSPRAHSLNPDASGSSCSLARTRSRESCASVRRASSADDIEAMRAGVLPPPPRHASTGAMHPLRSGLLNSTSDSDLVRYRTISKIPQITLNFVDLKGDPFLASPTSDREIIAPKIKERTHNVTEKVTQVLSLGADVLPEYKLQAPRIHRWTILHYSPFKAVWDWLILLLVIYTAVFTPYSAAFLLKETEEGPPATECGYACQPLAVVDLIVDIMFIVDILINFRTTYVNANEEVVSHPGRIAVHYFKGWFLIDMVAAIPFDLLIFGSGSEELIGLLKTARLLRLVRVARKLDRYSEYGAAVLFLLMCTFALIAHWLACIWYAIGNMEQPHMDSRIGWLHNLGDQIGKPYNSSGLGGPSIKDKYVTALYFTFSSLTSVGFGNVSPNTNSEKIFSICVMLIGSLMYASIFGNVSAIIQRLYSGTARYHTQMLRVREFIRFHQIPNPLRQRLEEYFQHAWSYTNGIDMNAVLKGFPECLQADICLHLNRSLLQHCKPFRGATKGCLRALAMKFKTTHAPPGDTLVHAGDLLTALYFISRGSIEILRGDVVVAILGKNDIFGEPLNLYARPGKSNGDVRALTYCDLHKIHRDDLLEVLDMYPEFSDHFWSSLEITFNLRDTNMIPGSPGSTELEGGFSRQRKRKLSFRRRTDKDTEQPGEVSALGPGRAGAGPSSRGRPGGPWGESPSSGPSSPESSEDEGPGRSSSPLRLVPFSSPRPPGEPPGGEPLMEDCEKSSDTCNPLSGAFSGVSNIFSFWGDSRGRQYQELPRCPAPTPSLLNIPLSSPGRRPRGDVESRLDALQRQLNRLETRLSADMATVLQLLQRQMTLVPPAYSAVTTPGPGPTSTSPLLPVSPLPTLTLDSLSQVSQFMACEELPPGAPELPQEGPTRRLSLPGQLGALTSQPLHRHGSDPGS
compound,measurement,setting,value
C[C@]12CCC(=O)C=C1CC[C@@H]1[C@@H]2C(=O)C[C@@]2(C)[C@H]1CC[C@]2(O)C(=O)CO,"activity, negative = inhibition",[1],inconclusive: 3.17%
same,Potency,[2],"inconclusive: 30.6 µM [activator, single point]"
same,Potency,[3],"inconclusive: 17.4 µM [inhibitor, full curve, poor fit]"
same,Potency,[4],inactive
CC(=O)[C@@]1(O)CC[C@H]2[C@@H]3C[C@H](C)C4=CC(=O)CC[C@]4(C)[C@H]3CC[C@@]21C,Potency,[1],"inconclusive: 16.9 µM [fluorescent, partial curve]"
same,Potency,[2],"inconclusive: 26.6 µM [activator, partial curve]"
same,Potency,[4],"inconclusive: 27.5 µM [inhibitor, partial curve]"
same,Potency,[5],inactive
CCCCOCCOCCO,"activity, negative = inhibition",[1],inconclusive: 3.67%
same,Potency,[6],inactive
same,Potency,[5],"inconclusive: 63.3 µM [inhibitor, partial curve]"
CC(C)Nc1ccc(NC(C)C)c2c1C(=O)c1ccccc1C2=O,"activity, negative = inhibition",[1],inconclusive: -38.9% [at 35.3 µM]
same,Potency,[6],inactive
same,Potency,[3],"inconclusive: 7.39 µM [inhibitor, full curve]"
same,Potency,[4],"inconclusive: 5.23 µM [inhibitor, full curve]"
O=c1oc2cc(O)ccc2c2oc3cc(O)ccc3c12,Potency,[1],inconclusive: 21 µM
same,Potency,[2],active: 65.7 µM
same,Potency,[6],"inconclusive: 68.1 µM [inhibitor, partial curve, poor fit]"
same,Potency,[7],active: 19.2 µM
COc1cc(/C=C/C(=O)O[C@H]2CC[C@]34C[C@]35CC[C@]3(C)[C@@H]([C@H](C)CCC=C(C)C)CC[C@@]3(C)[C@@H]5CC[C@H]4C2(C)C)ccc1O,"activity, negative = inhibition",[1],inconclusive: 0.709% [at 35.3 µM]
same,Potency,[8],inactive
same,Potency,[5],"inconclusive: 30.9 µM [inhibitor, partial curve]"
Cc1cc(SC2=C(O)C[C@@](CCc3ccc(N)cc3)(C(C)C)OC2=O)c(C(C)(C)C)cc1CO,"activity, negative = inhibition",[1],inconclusive: 10.1%
same,Potency,[3],"inconclusive: 79.6 µM [inhibitor, partial curve, poor fit]"
same,Potency,[4],"inconclusive: 12.6 µM [inhibitor, full curve, poor fit]"
same,Potency,[5],inactive
same,Potency,[7],active: 3.99 µM
CCOC(=O)COc1ccc2c(C)c(CCN(CC)CC)c(=O)oc2c1Cl,"activity, negative = inhibition",[1],inconclusive: 6.83% [at 35.3 µM]
same,Potency,[6],"inconclusive: 17.4 µM [inhibitor, partial curve]"
same,Potency,[3],"inconclusive: 3.89 µM [inhibitor, single point]"
same,Potency,[9],"inconclusive: 23.9 µM [inhibitor, partial curve]"
O=C(O)Cc1ccc(-c2ccccc2)cc1,Potency,[1],"inconclusive: 16.9 µM [rising, partial curve, poor fit]"
same,Potency,[2],inactive
same,Potency,[4],"inconclusive: 17.4 µM [inhibitor, partial curve]"
c1cc(-c2ccncc2)ccn1,"activity, negative = inhibition",[1],inconclusive: 3.02%
same,Potency,[6],"inconclusive: 35.9 µM [inhibitor, partial curve] and inconclusive: 56.4 µM [inhibitor, partial curve, poor fit]"
same,Potency,[3],inconclusive: 79.6 µM [inhibitor]
same,Potency,[9],inactive
C=C(C)C(=O)OCC(C)O (stereo not given),"activity, negative = inhibition",[1],inconclusive: 4.72%
same,Potency,[2],"inconclusive: 69.5 µM [activator, single point]"
same,Potency,[4],inactive
CC1(C)[C@H](C(=O)O)N2C(=O)C[C@H]2S1(=O)=O,"activity, negative = inhibition",[1],inconclusive: -15.3% [at 35.3 µM]
same,Potency,[4],inactive
CNCc1cc(F)ccc1Oc1ccc(Cl)c(Cl)c1,"activity, negative = inhibition",[1],inconclusive: -12.5%
same,Potency,[6],active: 1.78 µM
same,Potency,[4],"inconclusive: 71 µM [inhibitor, partial curve]"
C=C(C)C(=O)OCC(C)(C)COC(=O)C(=C)C,"activity, negative = inhibition",[1],inconclusive: 11.4%
same,Potency,[2],inactive
same,Potency,[6],"inconclusive: 31.7 µM [inhibitor, partial curve]"
same,Potency,[3],inactive
same,Potency,[7],inactive
C/C(=C\C(C)CC(C)CC(C)C)C1CC(=O)OC1=O (stereo not given),"activity, negative = inhibition",[1],inconclusive: 12.2%
same,Potency,[6],active: 35.6 µM
same,Potency,[3],"inconclusive: 89.4 µM [inhibitor, single point]"
same,Potency,[9],inactive

# From PubChem BioAssay (Tox21)
